Data as given in PubChem BioAssay AID1508642 (National Center for Advancing Translational Sciences (NCATS), 2021).
Among all 43,000 compounds or so, about 200 (0.47%) were called active. Inconclusive results (about 12%) are left out. Calls come from the whole dose curve; as a rule, active = well fitted cell-killing curve with a large enough effect; inconclusive = small, poorly fitted or top-dose-only effect, or effect the other way; inactive = flat fitted curve, though single readings scatter. The list shows a part of the results.

Experiment: Cell viability qHTS assay in S16 Pmp22-F2sN cells; note: nearly all actives have a fitted effect of over 65% in size
Details: S16 Pmp22-F2sN Schwann cells (luciferase reporters placed in the Pmp22 gene) viability, CellTiter-Glo, 24 h; series mostly up to 57.5 µM; activity change, negative = cytotoxicity: at the top concentration
Procedure, shortened: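 Seed 500-1,000 S16 Pmp22-F2sN cells per well in phenol-red-free DMEM with 10% heat-inactivated FBS; pin-add 23 nL compound; incubate 24 h at 37C; add CellTiter-Glo, wait 15 min protected from light; read luminescence.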
% is set by controls: 0 for no effect and ±100 for the full control effect; potency is the fitted concentration of half-maximal effect.

SMILES	activity change, negative = cytotoxicity	Potency
O=C(Nc1nnc(S(=O)(=O)N2CCCCCC2)s1)c1ccc(Cl)cc1	inactive: -0.591%	
COc1ccc(Nc2c(-c3ccsc3)nc3nc(C)cc(C)n23)cc1	inactive: -10.4%	
Cc1ccc(NC(=O)CN2C(=O)CC(c3ccc(C)c(C)c3)=Nc3ccccc32)cc1	inactive: 7.94%	
CCC(CC)C(=O)Nc1cc(-c2nc3cccnc3s2)ccc1C	inactive: 10.3%	
Cc1cccc(C)c1OC(=O)CSc1nnc(-c2ccc3c(c2)OCO3)o1	inactive: 2.91%	
CCOC(=O)Cn1c(=O)oc2cc(S(=O)(=O)N3CCN(c4ccc(F)cc4)CC3)ccc21	inactive: -0.729%	
Cn1c(C(=O)NCc2cccc(Cl)c2)cc2oc3ccccc3c21	inactive: -8.82%	
CC(=O)c1ccc(N2CCN(C(=O)CCCn3c(=O)[nH]c4ccsc4c3=O)CC2)cc1	inactive: 1.04%	
O=[N+]([O-])c1ccc(O)c(-c2ccnc3cc(-c4ccccc4)nn23)c1	inactive: -5.89%	
COCCCNC(=O)c1ccc(Cn2c(=O)c3cccn3c3cccnc32)cc1	inactive: -14.3%	
Cc1nn(CC(=O)NCc2ccc(N(C)C)cc2)c(=O)c2nn(-c3ccccc3)c(C)c12	inactive: 4.55%	
COc1ccccc1N1CCN(c2cc(C)nc3nncn23)CC1	inactive: -14%	
CCOc1ccc(CNC(=O)CSc2c3c(nc4ccc(Cl)cc24)CCCC3)cc1	inactive: 14.8%	
Cc1ccc(CNC(=O)Cn2c3ncccc3c(=O)n2-c2ccc(C)cc2)cc1	inactive: 2.12%	
Cc1nc2c(c(C)nn2C(C)(C)C)c(C)c1CCC(=O)Nc1ccc(F)cc1	inactive: 17.8%	
Cc1nn2c(=O)cc(COC(=O)c3ccc(NC(=O)COc4ccccc4F)cc3)nc2s1	inactive: 3.23%	
Cc1ccc(-n2c(SCC(=O)c3ccccc3)nc3c([nH]c4ccccc43)c2=O)cc1	inactive: 13.2%	
CC(C)C(=O)Nc1ccc2nc(SCC(=O)N3CCc4ccccc43)sc2c1	inactive: 11.5%	
COc1ccccc1CC(=O)Nc1ccc2nc(Nc3cccc(Cl)c3)cc(C)c2c1	inactive: -1.27%	
CCC(=O)N1CCc2cc(S(=O)(=O)Nc3cc(C)ccc3OC)ccc21	inactive: -8.85%	
COc1cccc(NC(=O)Cn2c(=O)n(CCCCC(=O)NCc3ccccc3Cl)c(=O)c3ccccc32)c1	inactive: 14.3%	
CCCCC(Sc1nc2cc3c(cc2c(=O)n1CCCC(=O)NCc1ccc2c(c1)OCO2)OCO3)C(=O)OCC (configuration not stated)	inactive: 5.05%	
O=C(CSc1ncc(S(=O)(=O)c2ccc(Br)cc2)c(=O)[nH]1)Nc1ccc2c(c1)OCCO2	inactive: 5.88%	
CC1CCN(C(=O)CSc2nc3ccccc3nc2Cc2ccccc2)CC1	inactive: 13.5%	
CCOc1ccccc1N1CCN(S(=O)(=O)c2ccc(C3CCCCC3)cc2)CC1	inactive: 6.46%	

SMILES	activity change, negative = cytotoxicity	Potency
COc1ccccc1CNC(=O)c1ccc2c(c1)N(Cc1c(F)cccc1Cl)C(=O)CS2	inactive: 3.36%	
O=C(Nc1ccc2oc(-c3cccc(F)c3)nc2c1)c1ccc2ccccc2c1	inactive: -0.493%	
CC(C)c1ccc(NC(=O)Cn2cc(S(=O)(=O)Cc3ccccc3Cl)c3ccccc32)cc1	inactive: -12.4%	
CCOC(=O)c1c(S(=O)(=O)N2CCC(C(=O)Nc3ccc(F)cc3F)CC2)c(C)n(C)c1C	inactive: -1.31%	
COc1ccc(Cn2c(CO)cnc2SCc2ccccc2C)cc1	inactive: -0.827%	
COc1ccc(CNC(=O)Cc2c(C)c3cc4c(C)coc4c(C)c3oc2=O)cc1OC	inactive: 6.17%	
CCOc1ccc(CN2C(=O)c3ccccc3C2C(=O)NCCc2ccc(OC)c(OC)c2)cc1 (configuration not stated)	inactive: 0.831%	
COc1ccccc1NC(=O)C1=C(C)Nc2ncnn2C1c1cccn1C (configuration not stated)	inactive: 16.6%	
Cc1ccc(C)c(NC(=O)C2CCN(c3cc(C)nc4c(-c5ccc(Cl)cc5)c(C)nn34)CC2)c1	inactive: 4.36%	
COc1cccc(NC(=O)Cn2cc(C(=O)c3ccco3)c3ccccc32)c1	inactive: -14.6%	
COc1ccc(-n2cc(C(=O)Oc3cc(C)cc(C)c3)c3ccccc3c2=O)cc1	inactive: -7.51%	
CCOc1ccc(CNS(=O)(=O)c2ccc3c(c2)CCCN3C(C)=O)cc1	inactive: 0.161%	
CC(=O)Nc1c(C)nn(-c2ccccc2)c1N1CCC(C(=O)Nc2ccccc2F)CC1	inactive: -0.886%	
COc1ccc(NC(=O)c2ccco2)cc1NC(=O)c1c(OC)cccc1OC	inactive: 16.3%	
O=C(Nc1ccccc1)N(Cc1cccc(Cl)c1)c1ccccn1	inactive: -0.348%	
Cn1c2ccccc2c2cnn(CC(=O)NCCCN3CCN(c4ccccc4F)CC3)c(=O)c21	inactive: -2.67%	
CCS(=O)(=O)c1nc(S(=O)(=O)c2ccc(C)cc2)c(NC)s1	inactive: -2.8%	
Cc1cccc(C(=O)N2CCc3cc(CNS(=O)(=O)c4ccc(F)c(Cl)c4)ccc32)c1	inactive: -26.8%	
CCc1ccccc1NC(=O)Cn1ccn(Cc2ccccc2)c(=O)c1=O	inactive: 1.57%	
CC1CCCCN1C(=O)CCS(=O)(=O)c1cc2c(cc1Cl)NC(=O)CO2 (configuration not stated)	inactive: 10.9%	
COc1cccc(CNCCCSc2nnnn2C)c1OC	inactive: -0.465%	
COc1ccc(CNc2nc(SCc3ccccc3Cl)nc3ccccc23)cc1	inactive: -6%	
COc1ccc(N2CC(NC(=O)C3CCCC3)CC2=O)cc1OC (configuration not stated)	inactive: 14.7%	
O=C(Nc1cccc(Cl)c1)C1CCCN(c2ncnc3c2nc2n3CCCCC2)C1 (configuration not stated)	inactive: 20.1%	
CCOC(=O)C1CCC(CN(Cc2ccc(OC)cc2)S(=O)(=O)c2ccc(F)c(C(=O)Nc3c(C)cccc3C)c2)CC1 (configuration not stated)	inactive: -6.87%	

SMILES	activity change, negative = cytotoxicity	Potency
CS(=O)(=O)Nc1ccccc1C(=O)OCc1cc(=O)n2nc(C3CCCCC3)sc2n1	inactive: -24.6%	
Cc1cc(F)ccc1NC(=O)CS(=O)(=O)c1cccc2nsnc12	inactive: 3.01%	
O=C(Cn1cnc2c(nc3n2CCCCC3)c1=O)Nc1ccc(F)c(Cl)c1	inactive: -1.07%	
CC1CCCN(S(=O)(=O)c2cc3c4c(c2)CC(=O)N4CCC3)C1 (configuration not stated)	inactive: -9.16%	
Cn1nc(C(=O)N2CCN(c3ccc(F)cc3)CC2)c2c1-c1ccccc1SC2	inactive: -1.73%	
COc1ccc(CCNC(=O)c2cn(C)c3ccc(S(=O)(=O)N(C)C)cc3c2=O)cc1OC	inactive: -0.573%	
CC(C)c1ccc(NC(=O)Cn2nnc(C(=O)NCc3ccc(Cl)cc3)c2N)cc1	inactive: 3.25%	
CCN(C(=O)c1cn(CC(C)C)c(=O)c2cc(OC)c(OC)cc12)c1cc(OC)ccc1OC	inactive: 16.1%	
COc1ccc2c(c1)sc1ncc(C(=O)NCc3cccc(C)c3)c(=O)n12	inactive: -0.919%	
N#Cc1ccccc1Cn1cnc2nc3c(cc2c1=O)CCCC3	inactive: -7.86%	
COc1ccccc1NC(=O)c1sc2nc3c(cc2c1N)CN(Cc1ccccc1)CC3	inactive: -2.79%	
CCNC(=O)c1c(NC(=O)c2nc(S(=O)(=O)CC)ncc2Cl)sc2c1CCCC2		active: 4.47 µM
COCCn1c(C)cc(O)c(C(c2ccc(F)cc2)N2CCN(c3ccccc3)CC2)c1=O (configuration not stated)	inactive: -0.254%	
CCOC(=O)c1c(C)c(-c2ccccc2)n(CC(=O)NCCc2cccc(C)c2)c1C	inactive: 6.91%	
COc1ccc(CC(=O)NCCS(=O)(=O)N2CCN(c3ccc(F)cc3)CC2)cc1OC	inactive: -22.7%	
O=C(CSc1nc(=O)[nH]c2c1CCCC2)NCc1ccc(F)cc1	inactive: -1.33%	
CCc1cc(=O)[nH]c(SCc2nc(-c3ccccc3)no2)n1	inactive: -3.09%	
Cc1cccc(CC(=O)NCc2nc3cccnc3n2Cc2ccc(F)cc2)c1	inactive: -3.23%	
Cc1nnc2c(N3CCN(c4ccccc4F)CC3)nc3ccc(C(=O)c4ccccc4)cc3n12	inactive: -0.604%	
Cc1cccc(C(=O)NC2=NC(c3ccc(Cl)cc3)CC(=O)N2)c1 (configuration not stated)	inactive: -1.2%	
CCOC(=O)c1c(NC(C)=O)c2c3c(sc2n1Cc1nc(-c2ccccc2Cl)oc1C)CCCC3	inactive: -0.543%	
Cc1ccc(CNC(=O)c2cc3c(s2)-c2c(C)cccc2OC3)cc1	inactive: -11.4%	
COc1ccc(Cn2c(=O)c3ccccc3n3c(-c4cccc(OC)c4OC)nnc23)cc1	inactive: 0.869%	
Cc1cccc(NC(=O)C2CCN(c3cnccn3)CC2)c1	inactive: -0.8%	
CC1CCN(S(=O)(=O)c2ccc3c(c2)oc(=O)n3CC(=O)O)CC1	inactive: 14.7%	

SMILES	activity change, negative = cytotoxicity	Potency
COc1ccc(CC(=O)Nc2ccc3nc(N4CCCCC4)cc(C)c3c2)cc1	inactive: -28.7%	
CCOCCCNC(=O)c1ccc(-n2c(-c3ccccc3)cc3c2CCCCC3)cc1	inactive: 4.7%	
Cc1cc(C)cc(NC(=O)N2CCN(c3cc(-c4noc(C)n4)ccc3C)CC2)c1	inactive: -0.443%	
COc1ccc2c(c1)c1c(c(=O)n(Cc3ccccc3)c(=O)n1CC(=O)NCc1ccccc1)n2C	inactive: -2.25%	
Cc1cc(=O)oc2cc(OCC(=O)Nc3ccc(O)c(C(=O)O)c3)ccc12	inactive: 23.4%	
Oc1ccc(NCc2ccc(OCc3ccccc3)cc2)cc1		active: 10 µM
CCOc1ccc(CC(=O)N2CCc3cc(OC)c(OC)cc3C2COc2ccc3c(C)cc(=O)oc3c2)cc1 (configuration not stated)	inactive: 2.29%	
CCCn1cnc2cc(NCc3ccc(OC)cc3OC)ccc21	inactive: -21.7%	
COc1ccc(CNC(=O)Cc2c(C)c3c(cc(C)c4c(C)c(C)oc43)oc2=O)cc1OC	inactive: 18%	
Cc1cccc(Cn2c(SCc3ccc(C(=O)NC4CCCC4)cc3)nc3ccncc32)c1	inactive: -13.9%	
Cc1cccc(-c2noc(CNC(=O)c3ccccc3Br)n2)c1	inactive: 18.6%	
Cc1ccc(NC(=O)c2sc(-n3nc(C)c(Cc4ccc5c(c4)OCO5)c3C)nc2C)cc1Cl	inactive: -11.5%	
CCOc1ccc(NC(=O)CCc2c(C)nc3cc(-c4ccc(Cl)cc4)nn3c2C)cc1	inactive: -0.966%	
CC(C)CNS(=O)(=O)c1ccc(N2CCCCS2(=O)=O)cc1	inactive: -0.918%	
Cc1ccc(CNC(=O)CS(=O)(=O)Cc2nc(-c3ccccc3C)oc2C)cc1	inactive: 4.35%	
CCCCCn1c(=O)[nH]c2cc(C(=O)NCc3ccccc3)ccc2c1=O	inactive: 0.416%	
CCCOc1ccc(NC(=O)C(=O)NCCCN2CCOCC2)cc1	inactive: -3.01%	
O=C(Nc1ccccc1F)C(Cc1ccccc1)n1cccc1 (configuration not stated)	inactive: 8.58%	
COc1cccc(C(=O)Nc2ccc3oc(-c4ccc5ccccc5c4)nc3c2)c1	inactive: 6.42%	
COc1cc(OC)cc(-c2nc3nc(C)c(CCC(=O)Nc4ccc(Cl)cc4)c(C)n3n2)c1	inactive: -0.714%	
Cc1cc(C)c(Nc2nn3c(=O)c4cc5c(cc4nc3s2)OCO5)c(C)c1	inactive: 2.03%	
O=C(Nc1ccc2nc(SCC(=O)N3CCOCC3)sc2c1)c1ccc(F)cc1	inactive: 16.6%	
